{
  "sequences": {"note": "Protein sequences, listed by entry. Tags and fused reporters are not part of them.", "UniProt Q9QR71": "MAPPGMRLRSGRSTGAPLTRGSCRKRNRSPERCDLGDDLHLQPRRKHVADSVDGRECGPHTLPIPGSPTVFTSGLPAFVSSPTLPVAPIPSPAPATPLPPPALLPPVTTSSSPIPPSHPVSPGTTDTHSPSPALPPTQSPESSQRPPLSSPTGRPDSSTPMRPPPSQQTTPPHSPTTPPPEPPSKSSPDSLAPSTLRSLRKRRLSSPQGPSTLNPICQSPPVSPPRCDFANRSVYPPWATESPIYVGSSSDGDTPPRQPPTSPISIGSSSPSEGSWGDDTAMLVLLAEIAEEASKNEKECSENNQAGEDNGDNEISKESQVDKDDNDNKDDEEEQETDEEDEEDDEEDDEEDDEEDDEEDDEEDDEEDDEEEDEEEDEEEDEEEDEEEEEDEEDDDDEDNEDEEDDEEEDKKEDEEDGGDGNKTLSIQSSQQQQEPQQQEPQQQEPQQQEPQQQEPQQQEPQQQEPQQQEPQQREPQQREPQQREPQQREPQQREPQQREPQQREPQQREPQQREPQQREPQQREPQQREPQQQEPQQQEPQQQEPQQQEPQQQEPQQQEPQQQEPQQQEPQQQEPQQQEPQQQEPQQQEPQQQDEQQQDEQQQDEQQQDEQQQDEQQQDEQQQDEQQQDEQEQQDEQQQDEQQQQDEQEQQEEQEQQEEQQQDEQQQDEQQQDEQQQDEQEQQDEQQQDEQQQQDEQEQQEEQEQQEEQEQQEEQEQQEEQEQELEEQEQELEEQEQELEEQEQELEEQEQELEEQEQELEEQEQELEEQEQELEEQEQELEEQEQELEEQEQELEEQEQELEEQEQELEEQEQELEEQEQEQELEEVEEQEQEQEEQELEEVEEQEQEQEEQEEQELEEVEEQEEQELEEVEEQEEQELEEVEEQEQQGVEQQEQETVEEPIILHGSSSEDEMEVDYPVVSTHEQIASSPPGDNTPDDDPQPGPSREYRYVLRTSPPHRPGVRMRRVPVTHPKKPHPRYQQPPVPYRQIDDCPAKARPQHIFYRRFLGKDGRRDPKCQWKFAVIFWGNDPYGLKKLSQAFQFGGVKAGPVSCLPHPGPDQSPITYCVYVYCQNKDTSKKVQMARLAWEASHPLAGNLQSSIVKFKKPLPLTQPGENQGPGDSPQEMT"},
  "source": "paper PMC5013526",
  "note": "These are yes or no findings as the source states them, for the method shown. Binding seen in cells or lysates may run through a third protein. Some results given as binding are weak or reduced against the parent protein; the word gives no strength.",
  "data": [
    {"molecular_target": "Myc-tagged full-length LANA (pA3M LANA) (KSHV (human herpesvirus 8)) (UniProt Q9QR71)", "assay": "co-IP; HEK 293T cells co-transfected with Flag- and Myc-tagged constructs; RIPA lysate (150 mM NaCl, 1% NP-40); IP with anti-Flag or anti-Myc, blot for the other tag", "values": [
      {"substance": "Flag-tagged NAP1L1 aa 1 to 91 (from UniProt P55209 1-91) (domain or fragment)", "binding": "no binding"},
      {"substance": "Flag-tagged NAP1L1 aa 1 to 191 (from UniProt P55209 1-191) (domain or fragment)", "binding": "binds"},
      {"substance": "Flag-tagged NAP1L1 aa 1 to 291 (from UniProt P55209 1-291) (domain or fragment)", "binding": "binds"},
      {"substance": "Flag-tagged NAP1L1 aa 92 to 191 (from UniProt P55209 92-191) (domain or fragment)", "binding": "binds"},
      {"substance": "Flag-tagged NAP1L1 aa 192 to 391 (from UniProt P55209 192-391) (domain or fragment)", "binding": "no binding"}
    ]},
    {"molecular_target": "T1, Nucleosome assembly protein 1-like 1 (NAP1L1), endogenous (human (endogenous in BCBL-1 and BC-3)) (UniProt P55209)", "T1 sequence": "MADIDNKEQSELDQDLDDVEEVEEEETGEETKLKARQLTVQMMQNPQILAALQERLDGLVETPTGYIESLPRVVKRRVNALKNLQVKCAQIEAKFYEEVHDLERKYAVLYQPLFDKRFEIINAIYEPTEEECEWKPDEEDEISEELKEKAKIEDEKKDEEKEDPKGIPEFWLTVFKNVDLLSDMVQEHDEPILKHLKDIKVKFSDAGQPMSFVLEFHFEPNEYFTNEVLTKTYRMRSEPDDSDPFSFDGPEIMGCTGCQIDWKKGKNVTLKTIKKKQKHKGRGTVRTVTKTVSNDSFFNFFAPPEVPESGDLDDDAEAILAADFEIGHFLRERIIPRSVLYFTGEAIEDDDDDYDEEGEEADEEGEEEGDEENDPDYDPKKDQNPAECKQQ", "assay": "co-IP; endogenous proteins from BCBL-1 and BC-3 RIPA lysates (150 mM NaCl, 1% NP-40, sonicated); IP with anti-LANA and blot for NAP1L1, or IP with anti-NAP1L1 and blot for LANA; BJAB cells or control IgG as controls", "values": [
      {"substance": "Latency-associated nuclear antigen (LANA), endogenous in KSHV-positive cells (from UniProt Q9QR71 1-1129)", "binding": "binds"}
    ]}
  ]
}
